Test results from ChEMBL document CHEMBL4888484, “Replenishing the malaria drug discovery pipeline: Screening and hit evaluation of the MMV Hit Generation Library 1 (HGL1) against asexual blood stage Plasmodium falciparum ,using a nano luciferase reporter read-out” (2022).
Out of some 150,000 compounds screened, about 540 (0.36%) showed an effect of 50% or more. Some of the results follow.

test system: Plasmodium falciparum; test: Primary screen in NF54 nanoGlo assay, in single point, at 2uM, 72h; a lower Z score goes with more inhibition; type: functional, Erythrocyte; details: timepoint 72 hour

Row | Compound | % Inhibition | Z score
1 | Cc1cc(N2CCC[C@H](S(C)(=O)=O)CC2)ncc1Br | -9% | 0.95
2 | CC(C)N(C(=O)c1cnc(-c2ccsc2)s1)c1cccnc1 | -4% | 0.69
3 | CC[C@H](C)N(Cc1ccc(OC)c(OS(=O)(=O)c2ccc(F)cc2)c1)C(=O)Nc1cccc(C)c1 | 3% | -0.5
4 | O=C(NC1CCC(CC2CCC(NC(=O)C(F)(F)F)CC2)CC1)C(F)(F)F (stereo unspecified) | -6% | 0.88
5 | CC(C)c1noc(-c2ccnc(NC[C@H](O)COc3ccc(F)c(F)c3)c2)n1 | -13% | 1.61
6 | COc1ccccc1CNS(=O)(=O)c1cc(-c2n[nH]c(=O)c3c2CCCC3)ccc1C | -19% | 1.65
7 | O=C(C1CCC1)N1CC(Oc2ccccc2-c2nc(C3CC3)no2)C1 | -13% | 1.49
8 | O=C(NCCN1CCOCC1)[C@@H]1CCN(c2ccc(Cl)cc2F)C1=O | 8% | -1.03
9 | O=C(Nc1ccc2ccccc2c1)N1CCC(n2cc(-c3cccnc3)nn2)CC1 | 15% | -1.9
10 | C[C@@H](CN1CCCCC1)NC(=O)c1nc(C2CC2)nn1C | -5% | 0.46
11 | COc1ccc(C(=O)NC2CCN(c3cnn(C)c(=O)c3)CC2)c(OC)c1 | 4% | -0.86
12 | COCCn1nnc2c1CCN(c1nc(C)c(CC(C)C)c(C)n1)C2 | -5% | 0.64
13 | COC(C)(C)CNC(=O)Cc1cc(C)on1 | -9% | 1.39
14 | CC(C)(O)CCNCc1ccc(Br)o1 | 12% | -1.76
15 | CN(CC1(CO)CCC1)c1nccc(C2CCCC2)n1 | -16% | 1.58
16 | Cc1ocnc1C(=O)N1C[C@@H]2CC[C@H]1CN(Cc1cscn1)C2 | -15% | 2.12
17 | Cn1cnnc1[C@H]1CCCN(c2ncccn2)C1 | -10% | 1.28
18 | COc1ccc(Cl)cc1NC(=O)[C@H](C)Oc1ccc(NC(=O)c2ccccc2OC)cc1 | -1% | 0.17
19 | NS(=O)(=O)c1cnn(C2CCCC2)c1 | -9% | 0.82
20 | CCC(=O)N(CCCOC)Cc1c(-c2ccccc2)noc1N1CCCC[C@@H]1C | -6% | 0.75
21 | CC1CCCC(NC(=O)Cc2c(F)c(F)c(F)c(F)c2F)C1C (stereo unspecified) | 3% | -0.49
22 | CC(C)(C)OC(=O)N[C@@H]1CCN(C2CCC(C(=O)OC(C)(C)C)CC2)C1 (stereo partly specified) | 0% | 0.04
23 | CCN(CC)S(=O)(=O)c1ccc2c(c1)nc(CN(C)C(=O)NCCc1ccccc1)n2C | -10% | 1.38
